Results are given in words; binding and its absence hold for the method and conditions named. For some assays here: In cells and extracts the contact can be indirect. Some binding calls cover weakened binding; strength is not graded here. For some assays here: Tags and fused reporters may be left off the sequences shown.
T1: PAK4 catalytic domain D440N/S474E (PAK4cat^D440N,S474E) (human) (UniProt O96013)
T1 sequence: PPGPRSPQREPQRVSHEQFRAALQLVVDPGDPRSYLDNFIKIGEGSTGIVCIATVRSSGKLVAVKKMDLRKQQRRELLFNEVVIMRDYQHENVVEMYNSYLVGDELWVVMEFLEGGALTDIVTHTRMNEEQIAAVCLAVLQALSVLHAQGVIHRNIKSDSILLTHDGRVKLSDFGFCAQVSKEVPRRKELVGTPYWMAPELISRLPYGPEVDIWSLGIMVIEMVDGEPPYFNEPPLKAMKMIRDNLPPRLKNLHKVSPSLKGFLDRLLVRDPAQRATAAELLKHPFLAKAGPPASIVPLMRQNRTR

Amino acid sequences for entries named in this document (tags omitted). Chains listed by the source or under a name are the forms on record and can include a tag or linker. Residues count along the entry.
GST-tagged full-length integrin β5 tail (residues 743–799) (P18084, residues 743-799): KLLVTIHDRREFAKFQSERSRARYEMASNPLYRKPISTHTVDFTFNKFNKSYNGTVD
GST-fusion of integrin β5 residues 743–774 (P18084, residues 743-774): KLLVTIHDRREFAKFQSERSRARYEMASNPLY


Columns and labels:
[1] = target: GST-tagged full-length integrin β5 tail (residues 743–799) (UniProt P18084); test: pull-down; GST or GST-fusion constructs of integrin β5 pull down GFP-PAK4-cat or GFP-PAK4-Δcat expressed in whole cells; quantified; only the target purified
[2] = target: GST-fusion of integrin β5 residues 743–774 (UniProt P18084); test: as above
[3] = target: PAK4 catalytic domain, purified recombinant (PAK4-cat) (human) (UniProt O96013); test: crystal structure; PAK4cat co-crystallised with 2 mM integrin β5 760–770 peptide; 1 mM peptide soaked into PAK4cat D440N,S474E crystals; 1 mM AMP-PNP, 5 mM MgCl2; both purified
[4] = target: T1, PAK4 catalytic domain D440N/S474E (PAK4cat^D440N,S474E) (human); test: as above

binding [1]	binding [2]	binding [3]	binding [4]	Binder
binds	binds			GFP-PAK4-cat (PAK4 kinase domain, residues 302–591) (domain or fragment, UniProt O96013-1 302-591) EQFRAALQLVVDPGDPRSYLDNFIKIGEGSTGIVCIATVRSSGKLVAVKKMDLRKQQRRELLFNEVVIMRDYQHENVVEMYNSYLVGDELWVVMEFLEGGALTDIVTHTRMNEEQIAAVCLAVLQALSVLHAQGVIHRDIKSDSILLTHDGRVKLSDFGFCAQVSKEVPRRKSLVGTPYWMAPELISRLPYGPEVDIWSLGIMVIEMVDGEPPYFNEPPLKAMKMIRDNLPPRLKNLHKVSPSLKGFLDRLLVRDPAQRATAAELLKHPFLAKAGPPASIVPLMRQNRTR
no binding				GFP-PAK4-Δcat (N-terminal regions of PAK4, residues 1–301) (domain or fragment, UniProt O96013-1 1-301) MFGKRKKRVEISAPSNFEHRVHTGFDQHEQKFTGLPRQWQSLIEESARRPKPLVDPACITSIQPGAPKTIVRGSKGAKDGALTLLLDEFENMSVTRSNSLRRDSPPPPARARQENGMPEEPATTARGGPGKAGSRGRFAGHSEAGGGSGDRRRAGPEKRPKSSREGSGGPQESSRDKRPLSGPDVGTPQPAGLASGAKLAAGRPFNTYPRADTDHPSRGAQGEPHDVAPNGPSAGGLAIPQSSSSSSRPPTRARGAPSPGVLGPHASEPQLAPPACTPAAPAVPGPPGPRSPQREPQRVSH
		binds	binds	ERSRARYEMAS (N-terminal acetyl, C-terminal amide) [integrin β5 peptide, residues Glu760-Ser770]

From PMC9669019, “Molecular basis for integrin adhesion receptor binding to p21-activated kinase 4 (PAK4)” (Communications Biology, 2022)
